According to PubChem BioAssay (NCI):
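Test compounds were applied to cells in 96-well plates for 48 hours at 5 doses. The concentration for 50% growth inhibition is given as GI50. The concentration for full growth arrest is given as TGI.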

System: NCI-H322M lung
Experiment: NCI anticancer screen, dose series, 48 h

| SMILES | TGI | GI50 |
| --- | --- | --- |
| c1ccc2c(c1)SCCc1cn[nH]c1-2 | > 100 µM | – |
| Cc1cc(Cl)ccc1N=C1NC(=O)C(CC(=O)Nc2cccc(C)c2C)S1 (centres undefined) | > 100 µM | – |
| CCOC(=O)C(=O)Nc1c(C)cccc1C(C)(C)C | > 100 µM | – |
| O=[N+]([O-])c1cccc(-c2cn3c(n2)Cc2ccccc2C3)c1 | > 100 µM | – |
| C1=Nc2ccc(cc2)-c2ccc(cc2)N=Cc2ccc(cc2)OCc2cccc(n2)COc2ccc1cc2 | > 100 µM | – |
| Cc1ccc(C(C)C)c(OCC(=O)N/N=C/c2c[nH]c3ccc(Br)cc23)c1 | 8.29 µM | – |
| O=C(Sc1n[nH]c(=O)[nH]c1=O)c1cccc2nc3ccccc3nc12 | 83.4 µM | – |
| CC1=NN(c2cccc(Cl)c2)C(=O)/C1=C\C=C\c1ccccc1 | > 100 µM | 28.1 µM |
| COc1cc2c3c(n(CCN4CCOCC4)c(=O)c2cc1OC)-c1ccccc1C3=O | > 100 µM | > 100 µM |
| O=c1[nH]c2ccc(Cl)cc2o1 | > 100 µM | – |
| O=C1NC2C3CC(OCc4ccccc4)(OCc4ccccc4)C2OC3O1 (centres undefined) | > 50 µM | – |
| CN(C)c1cc2c(Nc3ccc4c(cnn4Cc4ccccc4)c3)ncnc2cn1 | > 20.6 µM | 0.523 µM |
| CC(=O)NC1CC(C(C)(C)NC(C)=O)CC=C1C (centres undefined) | > 100 µM | – |
| CC[C@@H]([C@H](O)c1ccccc1Cl)[N+](=O)[O-] | > 100 µM | – |
| C=CCc1oc(C)nc1CCCC | > 100 µM | – |
| O=S(O)CCCSSSCCCS(=O)O | > 100 µM | – |
| COc1ccc2nc3n(c2c1)C(c1c(F)cccc1F)SC3 (centres undefined) | > 100 µM | – |
| Cc1ccc(N=Nc2c(O)ccc3n[nH]nc23)cc1 | 80.9 µM | 17.2 µM |
| Nn1c(-c2cccc(Cl)c2)nc2ccccc2c1=O | > 100 µM | – |
| COc1ccc(-c2c(-c3ccccc3)c(C)nc3[nH]c(=S)[nH]c(=S)c23)cc1OC | 44.2 µM | – |
| CCC[CH2][Sn]([CH2]CCC)([O]C(=O)c1cc(F)ccc1F)[O]C(=O)c1cc(F)ccc1F | 3.29 µM | 1.79 µM |
| C[C@@H](NC(=O)Cn1c(Cl)nc2ccccc21)c1ccccc1 | > 100 µM | – |
| CCn1cc(C(=O)N/N=C/c2cccs2)c(=O)c2cc(F)c(N3CCNC(C)C3)c(F)c21 (centres undefined) | 2.93 µM | 1.59 µM |
| Clc1ccc(C(Cc2ccccc2)c2c(Cl)nc(N3CCNCC3)nc2Cl)cc1 (centres undefined) | 33.8 µM | – |
| COc1ccc(/C=C2\Sc3nnc(-c4ccccc4)n3N=C2c2cc(F)c(Cl)cc2Cl)cc1OC | > 100 µM | – |
| O=c1cc(-c2ccccc2)oc2cc(OCCCCCN3CCOCC3)cc(O)c12 | > 100 µM | > 100 µM |

| SMILES | TGI | GI50 |
| --- | --- | --- |
| O=C1C(Cl)=C(Cl)C(=O)N1c1ccc(F)cc1 | > 94.8 µM | – |
| Cc1ccc2c(c1)C=CC1(O2)N(c2ccccc2)C(=S)OC1(C)C (centres undefined) | > 100 µM | – |
| CN1C(=O)[C@H](c2c[nH]c3ccccc23)[C@H](c2c[nH]c3ccccc23)C1=O | > 100 µM | – |
| C[C@H](c1ccccc1)n1c(N)c(-c2nc3ccccc3s2)c2ccc([N+](=O)[O-])cc2c1=O | 22.5 µM | – |
| COc1ccc(NC(=O)c2oc3cc(O)ccc3c(=O)c2C)c([N+](=O)[O-])c1 | > 100 µM | – |
| COC(=O)c1sc2c(c1C(=O)OC)C(=NC(C)(C)C)SC2=NC(C)(C)C | 51.1 µM | – |
| COc1cc2c3cc1Oc1c(OC)c(OC)cc4c1[C@@H](Cc1ccc(O)c(c1)Oc1ccc(cc1)C[C@@H]3N(C)CC2)N(C)CC4 | 50.6 µM | – |
| CNCC(=O)NC(CO)C(=O)NC(CO)C(=O)NC1C(C(N)=O)OC(n2ccc(N)nc2=O)C(O)C1O (centres undefined) | > 50 µg/mL | 8.59 µg/mL |
| CN(C)C(=S)/N=c1\ssc(=S)n1Cc1ccco1 | > 100 µM | – |
| COC(=O)c1ccc(NC(=O)c2ccc(NC3=C(Cl)C(=O)N(Cc4ccccc4)C3=O)cc2)cc1 | 60.4 µM | 22.1 µM |
| Cc1ccc(Nc2nc(=O)c3c([nH]c4ccccc43)s2)cc1 | 39.7 µM | – |
| CCCCSc1nc(N)c2cn[nH]c2n1 | > 69.6 µM | 4.29 µM |
| c1cc(C2CCCCC2)ccc1-c1cnc2nonc2n1 | 5.87 µM | 2.39 µM |
| CCOC(=O)/C(C#N)=C\Sc1ccccc1 | > 100 µM | – |
| O=C(COC(=O)c1cccc2c(=O)c3ccccc3[nH]c12)Nc1ccc(Cl)cc1 | > 100 µM | – |
| COc1ccc2c(C)cc(N/N=C/c3ccc(C)s3)nc2c1 | 24.5 µM | – |
| CSc1ncc2c(C#N)c3[nH]c4ccccc4n3c(=O)c2n1 | > 100 µM | – |
| Cc1c(Cl)cccc1NC(=O)c1sc2nc3c(cc2c1N)C(=O)CCC3 | > 100 µM | 0.219 µM |
| CC(=O)c1ccc2c3c1[C@H]1O[C@H]1c1cccc(c1-3)[C@@H]1O[C@H]21 | 9.73 µM | – |
| COc1c(B(O)O)cccc1-c1nc2ccc3[nH]ncc3c2c2c1CCCC2 | 13.3 µM | 2.64 µM |
| COc1ccc2cc(CN3CCC(C4CCN(Cc5ccc6cc(OC)ccc6c5)CC4)CC3)ccc2c1 | 10.1 µM | – |
| COc1cccc(/C=C2\SC(=S)N(/C=C3\C(=O)Oc4ccccc4C3=O)C2=O)c1O | > 100 µM | – |
| Clc1cc(OCc2nn3c(Cc4ccccc4)nnc3s2)c(Cl)cc1OCc1nn2c(Cc3ccccc3)nnc2s1 | > 100 µM | – |
| COc1ccc(C[C@@H](C(=O)O[C@H](C)[C@H](NC(=O)[C@@H](CC(C)C)N(C)C(=O)C2CCCN2C(=O)[C@H](C)O)C(=O)N2CCCCNC(=O)[C@@H](C)C(=O)[C@H](C(C)C)OC(=O)C[C@H](O)[C@H]2CC(C)C)N(C)C(C)=O)cc1 (some centres undefined) | > 50 µM | – |
| S=c1[nH]n2c(COc3ccc(Cl)cc3)nnc2s1 | > 100 µM | – |
